# Results taken from the supplement of paper PMC8728848.
# Some of the results follow.
# Tests used:
# Assay in all cases: glycan array binding signal (z-score within array); higher = stronger binding
# Settings in all cases: glycan notation: IUPAC condensed, linker removed
# [1] = molecular target: Fuc(a1-2)Gal
# Method in brief: (§1)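 From the Consortium for Functional Glycomics database, 3228 arrays were curated, keeping only those whose protein sequence was available. Binding is given as a within-array Z-score averaged across arrays sharing a protein sequence and across linkers. Negative Z-scores can be read as non-binding.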
# [2] = molecular target: Fuc(a1-2)Gal(b1-3)GalNAc
# Method in brief: as §1
# [3] = molecular target: Fuc(a1-2)Gal(b1-3)GalNAc(b1-3)Gal
# Method in brief: as §1
# [4] = molecular target: Fuc(a1-2)Gal(b1-3)GalNAc(b1-3)Gal(a1-4)Gal(b1-4)Glc
# Method in brief: as §1
# [5] = molecular target: Fuc(a1-2)Gal(b1-3)GalNAc(b1-4)[Neu5Ac(a2-3)]Gal(b1-4)Glc
# Method in brief: as §1
# [6] = molecular target: Fuc(a1-2)Gal(b1-3)GlcNAc
# Method in brief: as §1
# [7] = molecular target: Fuc(a1-2)Gal(b1-3)[Fuc(a1-4)]GlcNAc
# Method in brief: as §1
# [8] = molecular target: Fuc(a1-2)Gal(b1-4)Glc
# Method in brief: as §1
# [9] = molecular target: Fuc(a1-2)Gal(b1-4)GlcNAc
# Method in brief: as §1
# [10] = molecular target: Fuc(a1-2)Gal(b1-4)GlcNAc(b1-3)Gal(b1-4)GlcNAc
# Method in brief: as §1
# [11] = molecular target: Fuc(a1-2)Gal(b1-4)GlcNAc(b1-3)Gal(b1-4)GlcNAc(b1-3)Gal(b1-4)GlcNAc
# Method in brief: as §1
# [12] = molecular target: Fuc(a1-2)Gal(b1-4)[Fuc(a1-3)]GlcNAc
# Method in brief: as §1
# [13] = molecular target: Fuc(a1-2)GlcNAc
# Method in brief: as §1
# [14] = molecular target: Fuc(a1-2)[Gal(a1-3)]Gal
# Method in brief: as §1
# [15] = molecular target: Fuc(a1-2)[Gal(a1-3)]Gal(b1-4)GlcNAc
# Method in brief: as §1
# [16] = molecular target: Fuc(a1-2)[Gal(a1-4)]Gal(b1-4)GlcNAc
# Method in brief: as §1
# [17] = molecular target: Fuc(a1-2)[GalNAc(a1-3)]Gal
# Method in brief: as §1
# [18] = molecular target: Fuc(a1-2)[GalNAc(a1-3)]Gal(b1-4)GlcNAc
# Method in brief: as §1
# [19] = molecular target: Fuc(a1-2)[GalNAc(a1-4)]Gal(b1-4)GlcNAc
# Method in brief: as §1
# [20] = molecular target: Fuc(a1-2)[GalNAc(b1-3)]Gal
# Method in brief: as §1
# [21] = molecular target: Fuc(a1-3)GlcNAc
# Method in brief: as §1
# [22] = molecular target: Fuc(a1-3)[Gal(b1-4)]GlcNAc
# Method in brief: as §1
# [23] = molecular target: Fuc(a1-3)[Gal(b1-4)]GlcNAc(b1-3)Gal(b1-4)[Fuc(a1-3)]GlcNAc
# Method in brief: as §1
# [24] = molecular target: Fuc(a1-3)[Gal(b1-4)]GlcNAc(b1-3)Gal(b1-4)[Fuc(a1-3)]GlcNAc(b1-3)Gal(b1-4)[Fuc(a1-3)]GlcNAc
# Method in brief: as §1
# [25] = molecular target: Fuc(a1-3)[Gal3S(b1-4)]GlcNAc
# Method in brief: as §1
# [26] = molecular target: Fuc(b1-3)GlcNAc
# Method in brief: as §1
# [27] = molecular target: Gal(a1-2)Gal
# Method in brief: as §1
# [28] = molecular target: Gal(a1-3)Gal
# Method in brief: as §1
# [29] = molecular target: Gal(a1-3)Gal(b1-4)Glc
# Method in brief: as §1
# [30] = molecular target: Gal(a1-3)Gal(b1-4)GlcNAc
# Method in brief: as §1
binder,measurement,setting,value
"Hip/Pap (Homo sapiens), Q06141 (protein) MLPPMALPSVSWMLLSCLMLLSQVQGEEPQRELPSARIRCPKGSKAYGSHCYALFLSPKSWTDADLACQKRPSGNLVSVLSGAEGSFVSSLVKSIGNSYSYVWIGLHDPTQGTEPNGEGWEWSSSDVMNYFAWERNPSTISSPGHCASLSRSTAFLRWKDYNCNVRLPYVCKFTD",glycan array binding signal (z-score),[1],-0.178
same,glycan array binding signal (z-score),[2],-0.179
same,glycan array binding signal (z-score),[3],-0.155
same,glycan array binding signal (z-score),[4],-0.127
same,glycan array binding signal (z-score),[5],-0.177
same,glycan array binding signal (z-score),[6],-0.119
same,glycan array binding signal (z-score),[7],-0.18
same,glycan array binding signal (z-score),[8],-0.166
same,glycan array binding signal (z-score),[9],-0.186
same,glycan array binding signal (z-score),[10],-0.027
same,glycan array binding signal (z-score),[11],-0.194
same,glycan array binding signal (z-score),[12],-0.172
same,glycan array binding signal (z-score),[13],-0.128
same,glycan array binding signal (z-score),[14],-0.174
same,glycan array binding signal (z-score),[15],0.204
same,glycan array binding signal (z-score),[16],-0.195
same,glycan array binding signal (z-score),[17],-0.149
same,glycan array binding signal (z-score),[18],-0.163
same,glycan array binding signal (z-score),[19],-0.018
same,glycan array binding signal (z-score),[20],-0.121
same,glycan array binding signal (z-score),[21],-0.146
same,glycan array binding signal (z-score),[22],-0.181
same,glycan array binding signal (z-score),[23],-0.135
same,glycan array binding signal (z-score),[24],-0.149
same,glycan array binding signal (z-score),[25],-0.171
same,glycan array binding signal (z-score),[26],-0.18
same,glycan array binding signal (z-score),[27],-0.11
same,glycan array binding signal (z-score),[28],-0.187
same,glycan array binding signal (z-score),[29],-0.176
same,glycan array binding signal (z-score),[30],-0.133
